# This is one part of the list.
# Experiments:
# Assay in all cases: glycan array binding signal (z-score within array); higher = stronger binding
# Details in all cases: glycan notation: IUPAC condensed, linker removed
# [1] = biological target: Gal(b1-3)GalNAc(a1-3)[Fuc(a1-2)]Gal(b1-4)GlcNAc
# Procedure, shortened: (§1)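 Columns mapping to the same glycan were averaged after glycan names were converted to IUPAC-condensed notation. The data come from 3228 arrays in the Consortium for Functional Glycomics database, limited to those with an available protein sequence. Binding is reported as a within-array Z-score averaged across arrays of one protein sequence and across linkers.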
# [2] = biological target: Gal(b1-3)GalNAc(b1-3)Gal(a1-4)Gal(b1-4)Glc
# Procedure, shortened: as §1
# [3] = biological target: Gal(b1-3)GalNAc(b1-4)Gal(b1-4)Glc
# Procedure, shortened: as §1
# [4] = biological target: Gal(b1-3)GalNAc(b1-4)[Neu5Ac(a2-3)]Gal(b1-4)Glc
# Procedure, shortened: as §1
# Gal(b1-3)GlcNAc = biological target: Gal(b1-3)GlcNAc
# Procedure, shortened: as §1
# [5] = biological target: Gal(b1-3)GlcNAc(a1-6)Gal(b1-4)GlcNAc
# Procedure, shortened: as §1
# [6] = biological target: Gal(b1-3)GlcNAc(b1-2)Man(a1-3)[Gal(b1-3)GlcNAc(b1-2)Man(a1-6)]Man(b1-4)GlcNAc(b1-4)GlcNAc
# Procedure, shortened: as §1
# [7] = biological target: Gal(b1-3)GlcNAc(b1-2)Man(a1-3)[Gal(b1-3)GlcNAc(b1-2)Man(a1-6)]Man(b1-4)GlcNAc(b1-4)[Fuc(a1-6)]GlcNAc
# Procedure, shortened: as §1
# [8] = biological target: Gal(b1-3)GlcNAc(b1-3)Gal(b1-3)GlcNAc
# Procedure, shortened: as §1
# [9] = biological target: Gal(b1-3)GlcNAc(b1-3)Gal(b1-4)Glc
# Procedure, shortened: as §1
# [10] = biological target: Gal(b1-3)GlcNAc(b1-3)Gal(b1-4)GlcNAc
# Procedure, shortened: as §1
# [11] = biological target: Gal(b1-3)GlcNAc(b1-3)Gal(b1-4)GlcNAc(b1-6)[Gal(b1-3)GlcNAc(b1-3)]Gal(b1-4)Glc
# Procedure, shortened: as §1
# [12] = biological target: Gal(b1-3)GlcNAc(b1-3)Gal(b1-4)[Fuc(a1-3)]GlcNAc(b1-6)[Gal(b1-3)GlcNAc(b1-3)]Gal(b1-4)Glc
# Procedure, shortened: as §1
# [13] = biological target: Gal(b1-3)GlcNAc(b1-3)GalNAc
# Procedure, shortened: as §1
# [14] = biological target: Gal(b1-3)GlcNAc(b1-6)Gal(b1-4)GlcNAc
# Procedure, shortened: as §1
# [15] = biological target: Gal(b1-3)[Fuc(a1-4)]GlcNAc
# Procedure, shortened: as §1
# [16] = biological target: Gal(b1-3)[Fuc(a1-4)]GlcNAc(b1-2)Man(a1-3)[Gal(b1-3)[Fuc(a1-4)]GlcNAc(b1-2)Man(a1-6)]Man(b1-4)GlcNAc(b1-4)GlcNAc
# Procedure, shortened: as §1
# [17] = biological target: Gal(b1-3)[Fuc(a1-4)]GlcNAc(b1-2)Man(a1-3)[Gal(b1-3)[Fuc(a1-4)]GlcNAc(b1-2)Man(a1-6)]Man(b1-4)GlcNAc(b1-4)[Fuc(a1-6)]GlcNAc
# Procedure, shortened: as §1
# [18] = biological target: Gal(b1-3)[Fuc(a1-4)]GlcNAc(b1-3)Gal(b1-3)[Fuc(a1-4)]GlcNAc
# Procedure, shortened: as §1
# [19] = biological target: Gal(b1-3)[Fuc(a1-4)]GlcNAc(b1-3)Gal(b1-4)GlcNAc
# Procedure, shortened: as §1
# [20] = biological target: Gal(b1-3)[Fuc(a1-4)]GlcNAc(b1-3)Gal(b1-4)[Fuc(a1-3)]GlcNAc
# Procedure, shortened: as §1
# [21] = biological target: Gal(b1-3)[GlcNAc(b1-6)]GalNAc
# Procedure, shortened: as §1
# [22] = biological target: Gal(b1-3)[Neu5Ac(a2-6)]GalNAc
# Procedure, shortened: as §1
# [23] = biological target: Gal(b1-3)[Neu5Ac(a2-6)]GlcNAc(b1-6)Gal(b1-4)Glc
# Procedure, shortened: as §1
# [24] = biological target: Gal(b1-3)[Neu5Ac(b2-6)]GalNAc
# Procedure, shortened: as §1
# [25] = biological target: Gal(b1-4)GalNAc(a1-3)[Fuc(a1-2)]Gal(b1-4)GlcNAc
# Procedure, shortened: as §1
# [26] = biological target: Gal(b1-4)GalNAc(b1-3)[Fuc(a1-2)]Gal(b1-4)GlcNAc
# Procedure, shortened: as §1
# Gal(b1-4)Glc = biological target: Gal(b1-4)Glc
# Procedure, shortened: as §1
# Gal(b1-4)Glc6S = biological target: Gal(b1-4)Glc6S
# Procedure, shortened: as §1
# Gal(b1-4)GlcNAc = biological target: Gal(b1-4)GlcNAc
# Procedure, shortened: as §1
# [27] = biological target: Gal(b1-4)GlcNAc(a1-6)Gal(b1-4)GlcNAc
# Procedure, shortened: as §1
# [28] = biological target: Gal(b1-4)GlcNAc(b1-2)Man(a1-3)Man(b1-4)GlcNAc(b1-4)GlcNAc
# Procedure, shortened: as §1
# [29] = biological target: Gal(b1-4)GlcNAc(b1-2)Man(a1-3)[Gal(b1-4)GlcNAc(b1-2)Man(a1-6)]Man(b1-4)GlcNAc(b1-4)GlcNAc
# Procedure, shortened: as §1
# [30] = biological target: Gal(b1-4)GlcNAc(b1-2)Man(a1-3)[Gal(b1-4)GlcNAc(b1-2)Man(a1-6)]Man(b1-4)GlcNAc(b1-4)[Fuc(a1-6)]GlcNAc
# Procedure, shortened: as §1
# [31] = biological target: Gal(b1-4)GlcNAc(b1-2)Man(a1-3)[GlcNAc(b1-2)Man(a1-6)]Man(b1-4)GlcNAc(b1-4)GlcNAc
# Procedure, shortened: as §1
# [32] = biological target: Gal(b1-4)GlcNAc(b1-2)Man(a1-3)[Man(a1-6)]Man(b1-4)GlcNAc(b1-4)GlcNAc
# Procedure, shortened: as §1
# [33] = biological target: Gal(b1-4)GlcNAc(b1-2)Man(a1-6)Man(b1-4)GlcNAc(b1-4)GlcNAc
# Procedure, shortened: as §1
# [34] = biological target: Gal(b1-4)GlcNAc(b1-2)Man(a1-6)[GlcNAc(b1-2)Man(a1-3)]Man(b1-4)GlcNAc(b1-4)GlcNAc
# Procedure, shortened: as §1
# [35] = biological target: Gal(b1-4)GlcNAc(b1-2)Man(a1-6)[Man(a1-3)]Man(b1-4)GlcNAc(b1-4)GlcNAc
# Procedure, shortened: as §1
# [36] = biological target: Gal(b1-4)GlcNAc(b1-2)[Gal(b1-4)GlcNAc(b1-4)]Man(a1-3)[Gal(b1-4)GlcNAc(b1-2)Man(a1-6)]Man(b1-4)GlcNAc(b1-4)GlcNAc
# Procedure, shortened: as §1
# [37] = biological target: Gal(b1-4)GlcNAc(b1-2)[Gal(b1-4)GlcNAc(b1-4)]Man(a1-3)[Gal(b1-4)GlcNAc(b1-2)[Gal(b1-4)GlcNAc(b1-6)]Man(a1-6)]Man(b1-4)GlcNAc(b1-4)GlcNAc
# Procedure, shortened: as §1
# [38] = biological target: Gal(b1-4)GlcNAc(b1-3)Gal(b1-3)GlcNAc
# Procedure, shortened: as §1
# [39] = biological target: Gal(b1-4)GlcNAc(b1-3)Gal(b1-4)Glc
# Procedure, shortened: as §1
# [40] = biological target: Gal(b1-4)GlcNAc(b1-3)Gal(b1-4)GlcNAc
# Procedure, shortened: as §1
# [41] = biological target: Gal(b1-4)GlcNAc(b1-3)Gal(b1-4)GlcNAc(b1-3)Gal(b1-4)GlcNAc
# Procedure, shortened: as §1
binder,measurement,setting,value
GH98CBM51-1 (Streptococcus pneumoniae) (protein) MTYLSDMDWSSATHGDIDKTKTVQKDAPFTTGNKGEHTKISLLTSDDKVKYFDKGIGTVADSPSVISYDISGQGFEKFETYIGIDQSANSSRSDHAVVDRIEIEIDGKVVYSSSVTNPEGFRYNTQAQFISVTIPQNAKKISLKSFAGEHTWGDEVVFADAKLIKTVST,glycan array binding signal (z-score),[1],-0.163
same,glycan array binding signal (z-score),[2],-0.191
same,glycan array binding signal (z-score),[3],-0.191
same,glycan array binding signal (z-score),[4],-0.188
same,glycan array binding signal (z-score),Gal(b1-3)GlcNAc,-0.188
same,glycan array binding signal (z-score),[5],-0.19
same,glycan array binding signal (z-score),[6],-0.188
same,glycan array binding signal (z-score),[7],-0.188
same,glycan array binding signal (z-score),[8],-0.19
same,glycan array binding signal (z-score),[9],-0.189
same,glycan array binding signal (z-score),[10],-0.19
same,glycan array binding signal (z-score),[11],-0.185
same,glycan array binding signal (z-score),[12],-0.191
same,glycan array binding signal (z-score),[13],-0.187
same,glycan array binding signal (z-score),[14],-0.184
same,glycan array binding signal (z-score),[15],-0.189
same,glycan array binding signal (z-score),[16],-0.172
same,glycan array binding signal (z-score),[17],-0.187
same,glycan array binding signal (z-score),[18],-0.19
same,glycan array binding signal (z-score),[19],-0.187
same,glycan array binding signal (z-score),[20],-0.189
same,glycan array binding signal (z-score),[21],-0.183
same,glycan array binding signal (z-score),[22],-0.193
same,glycan array binding signal (z-score),[23],-0.188
same,glycan array binding signal (z-score),[24],-0.189
same,glycan array binding signal (z-score),[25],-0.188
same,glycan array binding signal (z-score),[26],-0.188
same,glycan array binding signal (z-score),Gal(b1-4)Glc,-0.189
same,glycan array binding signal (z-score),Gal(b1-4)Glc6S,-0.186
same,glycan array binding signal (z-score),Gal(b1-4)GlcNAc,-0.188
same,glycan array binding signal (z-score),[27],-0.186
same,glycan array binding signal (z-score),[28],-0.193
same,glycan array binding signal (z-score),[29],-0.191
same,glycan array binding signal (z-score),[30],-0.188
same,glycan array binding signal (z-score),[31],-0.192
same,glycan array binding signal (z-score),[32],-0.189
same,glycan array binding signal (z-score),[33],-0.191
same,glycan array binding signal (z-score),[34],-0.19
same,glycan array binding signal (z-score),[35],-0.193
same,glycan array binding signal (z-score),[36],-0.19
same,glycan array binding signal (z-score),[37],-0.139
same,glycan array binding signal (z-score),[38],-0.19
same,glycan array binding signal (z-score),[39],-0.19
same,glycan array binding signal (z-score),[40],-0.196
same,glycan array binding signal (z-score),[41],-0.193
